In the supplement of paper PMC11417369:
± gives the standard deviation of the averaged measurements. This is one part of the list.

Test system: PfAP2-LT AP2 domain (GST-tagged)
Experiment: gcPBM binding intensity (ln(normalized median fluorescence intensity)); higher = stronger DNA binding
Method in brief: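 Binding of GST-tagged P. falciparum DNA-binding domains, expressed in E. coli and used at about 25 μg on average, was carried out for 1 h in 1× PBS containing 1% milk, 0.2 mg/ml BSA, 0.5% salmon testes DNA and 0.03% Triton X-100. The target was an Agilent 4 × 180k array of primer-extended double-stranded 36-bp intergenic genomic probes plus negative controls, read with Alexa488 anti-GST antibody at 488 nm. Binding intensity is the highest Masliner-normalised natural-log median intensity across replicate spots of either probe orientation.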

| Sequence | gcPBM binding intensity (ln) |
| --- | --- |
| AAAAAAAAAAAACACACACACACATACAAAATATAT [CACACA_site1448] | 10.04 ± 0.071 |
| GTAATTTAAATAACAAGTACTAATGTGGATAAGCAG [XGTACX_site1163] | 8.87 ± 0.42 |
| AATTATACGAAATAAAACTTAATAGACAAAAAATTA [CACACA_negctrl_site1384] | 8.65 ± 0.43 |
| ATTTTGTATTGACGCTGTACAAACATTAATATAATA [XGTACX_site2496] | 8.72 ± 0.29 |
| TTTTGCGTAGCAACGAGGTTTTTAAAAATGTAACCA [GTGCAC_negctrl_site691] | 8.38 ± 0.49 |
| AACAAAATAAAACACACACACAAATGTACATATATA [CACACA_site2424] | 9.88 ± 0.26 |
| TAGAAGCATCATTTTACACACATGCAAATGTAAACT [CACACA_site6973] | 8.97 ± 0.34 |
| CAAATTTTTAAAAATGCATGTTCATCCATCCCATAT [TGCATGCA_site467] | 8.68 ± 0.47 |
| TTTGTATGATCATAAAGTACTAATTTACATTCAGCA [XGTACX_site8596] | 8.66 ± 0.39 |
| ATATATATATATAGAAGTACTCTTATATATTTTATA [XGTACX_site1384] | 8.91 ± 0.21 |
| GATATGGAATATATGTGTACATATATATATATTATA [XGTACX_site1724] | 8.91 ± 0.41 |
| AAAAAAAAAAAAAATACACACACATAAAAAAAAAAA [CACACA_site8555] | 9.52 ± 0.54 |
| GTAGAATCAGTATTCACACATAAATGTATCCAAATG [CACACA_site5395] | 8.91 ± 0.41 |
| ATATATGAAAATATATGTACACAACATATAAAATAG [XGTACX_site5132] | 9.08 ± 0.42 |
| TTTTCATTCTTATATAAATATTATTTTATATAAAAT [GTGCAC_negctrl_site674] | 8.24 ± 0.47 |
| AATTATATACCATGCACACAAATATTCATACAGGAA [CACACA_site4057] | 9.16 ± 0.4 |
| AAAAATATATATATATTTCTTCTTTGTTAAAATGTA [CACACA_negctrl_site1459] | 8.32 ± 0.42 |
| TATATACTTATATACTGTACTCATCATCTTTTAAAG [XGTACX_site6099] | 8.67 ± 0.42 |
| AAAATATATCAAAACACACTCACATATAATACTTAC [CACACA_site6031] | 9.11 ± 0.37 |
| TTTTTTTTTTTTTAAACATGCAAAATATATAATTTT [TGCATGCA_site633] | 8.16 ± 0.34 |
| TAATATATCTATAATACACACTATTCTAATCACATA [CACACA_site6731] | 8.72 ± 0.41 |
| TAGAAACTATGTAATGCACACCAAAATAAAATTATT [CACACA_site8578] | 8.95 ± 0.45 |

| Sequence | gcPBM binding intensity (ln) |
| --- | --- |
| TTTTGGATACTTCATTTGTCCTGTTTTTTTTTTTTA [CACACA_negctrl_site399] | 8.74 ± 0.49 |
| TTTTAAAAAATAAAATATTATTGAAGTAAAATATGA [CACACA_negctrl_site758] | 8.21 ± 0.49 |
| ATATACTATTAACCACATATGTGTGTTAATTTATAT [GTGCAC_negctrl_site315] | 9.04 ± 0.39 |
| TTGAACCCCACTAACACACACACGCACGCTCAGAAA [CACACA_site2983] | 9.74 ± 0.23 |
| TGCTATTTCATATTCTGTACTAAAACAAGATAATAA [XGTACX_site3852] | 8.31 ± 0.41 |
| ATATTAATTATAACTTGTACGTAAAAGGAAAACAAT [XGTACX_site3269] | 8.81 ± 0.45 |
| TTTTTAATATTGTATGCATGTCGTAATAAAAAATTT [TGCATGCA_site259] | 8.38 ± 0.36 |
| AACACACACATATATATATATATATATATATATATA [GTGCAC_negctrl_site573] | 10.5 ± 0.13 |
| ATAATAAACATATATGTACACACATATACATATATA [CACACA_site8924] | 9.02 ± 0.4 |
| TCCTTAAAAAAACCTTAACACACATAAACTATAATT [CACACA_site9001] | 8.65 ± 0.4 |
| TTTTTTTTTAAGTTTGCACACATGGAAGACAAAAAT [CACACA_site2505] | 8.77 ± 0.28 |
| ATGAATGAATACGTTTTACACACTTGAATATAATTT [CACACA_site8237] | 8.87 ± 0.42 |
| TATTTCACAAAAAAAAAAAAAAAAAAGAAGCAAAAA [CACACA_negctrl_site1040] | 8.24 ± 0.6 |
| AACATAACAAAAAAAAAAAAAAATATATATATATAT [TGCATGCA_negctrl_site370] | 9.56 ± 0.29 |
| GTATATTGTACCATCACACATGTAAAACATAGATGT [CACACA_site5359] | 8.94 ± 0.43 |
| TATTTTATATACAGTGGTACTTTTTTTTTTTTTTTT [XGTACX_site2475] | 8.55 ± 0.69 |
| AAAAAAAAAAAAAAATCACACACAATATGAATTTAT [CACACA_site8100] | 8.93 ± 0.47 |
| ACATATATATTATAAGCATGCATGAGAAAATTTTTA [TGCATGCA_site1054] | 8.98 ± 0.41 |
| AAAAAAAAAAAAAAAACACACATTTGAAGAAAAAAA [CACACA_site7389] | 8.58 ± 0.51 |
| AATTGCTTCAAAATTAAACACACACTAATAAAAAAA [CACACA_site8855] | 8.93 ± 0.42 |
| TAATACATAAATAATGTGCACATGGAAATATATCTT | 9.21 ± 0.43 |
| TATAACTATGGGTGTACACATTAATCGTTTTTCTTT [CACACA_site5196] | 8.82 ± 0.47 |
